Experimental data taken from PubChem BioAssay AID651820 (National Center for Advancing Translational Sciences (NCATS), 2012).
Values joined by “and” are separate entries in the source; they are usually repeats but may differ in a detail not shown here. Equal entries are not always repeated. Out of some 340,000 compounds screened, about 12,000 (3.5%) were called active. This list was built around the results that the source calls inconclusive (neither active nor inactive); the mix of calls is not that of the screen. Calls come from the whole dose curve; as a rule, active = well fitted inhibition curve with a large enough effect; inconclusive = small, poorly fitted or top-dose-only effect, or another doubt; inactive = no such curve, though single readings can be large or run the other way. Where the call is inconclusive, the potency comes from a doubtful curve fit.
% is set by controls: 0 for no effect and ±100 for the full control effect; potency is the fitted concentration of half-maximal effect; tags give direction and shape of the fitted curve.

Assay: qHTS Assay for Inhibitors of Hepatitis C Virus (HCV)
Conditions: Huh7.5.1 HCVcc-Cre (HCVcc is cell-culture hepatitis C virus) infection, luciferase reporter, 44 h; activity change, negative = inhibition: at 41.8 µM (top of the series)
How it was run: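 A cell-based infection assay in which seeded cells (1,000 per well) receive test compound after 4 h, are inoculated with HCVcc-Cre at approximately 0.5 moi, and are incubated 44 h before luminescence detection.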
With `Cn1c(O)c(/C=C2\C=NN=C2c2ccccc2)sc1=S` the Potency was inconclusive: 6.31 µM [inhibitor, full curve]. For `CC[N+]1(C)CCC(O)(c2ccc(OC)cc2)C(C(=O)c2ccc(OC)cc2)C1` (stereo not given), the Potency was inconclusive: 11.2 µM [inhibitor, single point]. In the case of `Cc1ccc(S(=O)(=O)N2CCC(C(=O)O)CC2)cc1`, the Potency is reported as “inactive”. For `C[C@@H]1CN([C@@H](C)CO)C(=O)c2cccc(NS(C)(=O)=O)c2O[C@H]1CN(C)Cc1ccc(C(=O)O)cc1`, the Potency was “inactive”. In the case of `CCN1CCN(C(=S)NCc2ccc(C)cc2)CC1`, the Potency is reported as inconclusive: 0.447 µM [inhibitor, full curve]. With `COc1ccc(-c2ccc(/C=N/N3C(=O)C4C5C=CC(C6CC56)C4C3=O)o2)c([N+](=O)[O-])c1` (stereo not given) the Potency was inconclusive: 11.2 µM [inhibitor, partial curve]. In the case of `CCc1ccc(-c2csc(NC(=O)Oc3ccccc3)n2)cc1`, the Potency is reported as “inactive”. In the case of `COc1cccc(N2C(=O)/C(=C/c3ccc(C)o3)C(=O)NC2=S)c1`, the Potency is reported as “inactive”. In the case of `O=C(c1ccc(S(=O)(=O)c2cccc(Cl)c2)c([N+](=O)[O-])c1)N1CCN(Cc2ccccc2)CC1`, the Potency is reported as inconclusive: 31.6 µM [inhibitor, single point]. With `Cn1c(=O)n(C)c2cc(NC(=O)CCl)ccc21` the Potency was inconclusive: 12.6 µM [inhibitor, partial curve, poor fit]. With `O=C(CNC(=O)c1ccc(Br)o1)Nc1ccncc1` the Potency was “inactive”. With `CCN(C(=O)CN1C(=O)COc2ccc(S(=O)(=O)N3CCCCCC3)cc21)c1cccc(C)c1` the Potency was inconclusive: 22.4 µM [inhibitor, single point]. For `COc1ccccc1-c1cccc([C@@H]2C[C@H]3[C@@H](CN2)CON3C)c1`, the activity change, negative = inhibition was inactive: -8.69% [at 8.37 µM]. In the case of `COc1cccc(CNS(=O)(=O)c2ccc3c(c2)N(C(C)=O)CCS3)c1`, the Potency is reported as inconclusive: 3.16 µM [inhibitor, partial curve]. In the case of `COc1ccc(OC)c(NC(=O)CSc2nnc3ccc(-c4ccccn4)nn23)c1`, the Potency is reported as “inactive”. With `COc1ccc(O)cc1` the Potency was active: 0.794 µM. In the case of `CCc1cc2cc3c(cc2nc1SCC(=O)N1CCN(C(=O)c2ccco2)CC1)OCO3`, the Potency is reported as inconclusive: 10 µM [inhibitor, single point]. In the case of `Cc1cccc(C)c1OCc1cc(C(=O)N2CCN(c3ccc(F)cc3)CC2)no1`, the Potency is reported as inconclusive: 11.2 µM [inhibitor, single point]. For `CC1(C)Cc2c(C#N)c(SCc3ccccc3)nc(N3CCOCC3)c2CO1`, the Potency was inconclusive: 35.5 µM [inhibitor, partial curve]. With `CCCCn1c(N)c(N(CC(C)C)C(=O)c2cccc(S(=O)(=O)N3CCCCC3)c2)c(=O)[nH]c1=O` the activity change, negative = inhibition was inconclusive: -89.6% [inhibitor]. For `CC1=C(C(=O)OCc2ccccc2)C(c2ccccc2Cl)NC(=O)N1C` (stereo not given), the Potency was inconclusive: 10 µM [inhibitor, single point]. For `Cc1ccc([N+](=O)[O-])cc1NC(=O)CSc1nncn1-c1ccccn1`, the Potency was inconclusive: 31.6 µM [inhibitor, single point]. For `CCOC(=O)C1CCN(C2CC(=O)N(c3ccc(OCC)cc3)C2=O)CC1` (stereo not given), the Potency was “inactive”. With `CCn1c(C)c(C(=O)NCCc2ccccc2)c2cc(OC)ccc21` the Potency was inconclusive: 5.62 µM [inhibitor, single point]. In the case of `COC(=O)c1ccc(NC(=O)c2c(C(=O)Nc3ccccc3)sc3nc(C)cc(=O)n23)cc1`, the Potency is reported as “inactive”. In the case of `Cc1cc(C(=O)N/N=C/C=C/c2ccccc2)c(C)o1`, the Potency is reported as “inactive”. In the case of `Cc1ccc(C(C)C)c(OCC(=O)Nc2ccccc2N2CCN(C)CC2)c1`, the Potency is reported as inconclusive: 22.4 µM [inhibitor, single point]. With `CCc1ccc([C@@H]2CC=C(C(=O)O)[C@H](c3ccc(C(C)(C)C)cc3)N2S(=O)(=O)c2ccc(C)cc2)cc1` the Potency was “inactive”. With `O=C(COc1ccc(-c2ccccc2)cc1)Nc1cccnc1` the Potency was inconclusive: 15.8 µM [inhibitor, single point]. In the case of `COc1ccc(N2CCN(CCNC(=O)c3c(C)cc(=O)oc3C)CC2)cc1`, the Potency is reported as “inactive”. For `Cc1cc(Br)ccc1NC(=O)CNC(=O)CSc1nccn1C`, the Potency was “inactive”. For `O=C(Nc1ccc2oc(-c3ccncc3)nc2c1)c1ccc(F)cc1`, the Potency was active: 22.4 µM. With `CCOC(=O)c1ccc(S(=O)(=O)N2CCN(C(=O)CSc3nc4ccccc4o3)CC2)cc1` the Potency was inconclusive: 31.6 µM [inhibitor, single point]. For `CCOc1ccc(C(=O)N2CCCCCC2)cc1`, the Potency was “inactive”. With `O=C(CSc1ncn[nH]1)N1c2ccccc2Sc2ccccc21` the Potency was inconclusive: 5.62 µM [inhibitor, single point]. With `COc1ccc(CN2CCCC(CO)(Cc3cccc(Cl)c3)C2)cc1OC` (stereo not given) the Potency was inconclusive: 25.1 µM [inhibitor, single point]. With `Cc1cccc(NC(=S)NNc2ncc(C(F)(F)F)cc2Cl)c1` the Potency was active: 11.2 µM. For `NS(=O)(=O)c1ccc(CCNC(=O)NC2(C(F)(F)F)Oc3ccccc3O2)cc1`, the Potency was inconclusive: 31.6 µM [inhibitor, single point] and inconclusive: 10 µM [inhibitor, single point]. For `CC(C)NC(=O)N1c2ccccc2Sc2ccccc21`, the Potency was “inactive”. In the case of `CN(C)c1ccc(N2C(=O)CC(Sc3ccccc3C(=O)O)C2=O)cc1` (stereo not given), the Potency is reported as “inactive”. For `CC(C)(CO)Nc1nc(N2CCCC2)nc(N2CCCC2)n1`, the Potency was inconclusive: 1.78 µM [inhibitor, full curve]. With `Cc1ccc(NC(=O)c2sccc2C)cc1[N+](=O)[O-]` the Potency was inconclusive: 3.16 µM [inhibitor, full curve]. For `CCCN1CCN(CCCNC(=S)Nc2ccc3nc(N4CCN(CC)CC4)cc(C)c3c2)CC1`, the Potency was inconclusive: 1.58 µM [inhibitor, full curve]. With `Cc1cc(C)c(C)c(S(=O)(=O)N2CCN(CC(=O)c3c(N)n(Cc4ccccc4)c(=O)n(C)c3=O)CC2)c1C` the Potency was inconclusive: 7.94 µM [inhibitor, partial curve]. In the case of `Cc1cc2c3c([nH]c2cc1S(=O)(=O)N1CCC2(CC1)OCCO2)CC(C)(C)CC3=O`, the Potency is reported as inconclusive: 12.6 µM [inhibitor, partial curve, poor fit].
